The campaign covered roughly 410,000 compounds. About 5,000 (1.2%) were called active. This list was built around the results that the source calls inconclusive (neither active nor inactive); the mix of calls is not that of the screen. The call rests on the fitted dose curve; in most records, active means well fitted inhibition curve with a large enough effect; inconclusive means small, poorly fitted or top-dose-only effect; inactive means no such curve, though single readings can be large or run the other way. Potencies of inconclusive entries are doubtful fits and often do not repeat.
test: qHTS for Inhibitors of TGF-b; conditions: HepG2 CAGA-GFP TGF-b/SMAD3 reporter, GFP fluorescence, 18 h, TGF-beta stimulated, 500 pg/mL final; series mostly up to 46.1 µM; activity, negative = inhibition: at the top concentration; further: nearly all actives have a fitted effect of over 65% in size
In short: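 HEPG2 CAGA-GFP cells (1000/well, DMEM with 1% FBS) were pre-incubated 2 h at 37 degrees C, given compound by pin tool, then stimulated with TGF-beta at 500 pg/mL final for 18 h before per-cell GFP fluorescence imaging.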
On the % scale 0 is the no-effect control and ±100 the full control effect; potency means the concentration at half of the fitted maximal effect; tags describe the fitted curve by direction and shape.

SMILES	Potency	activity, negative = inhibition
COc1cc(/C=N/NC(=O)Cn2nc([N+](=O)[O-])cc2C)cc(Br)c1OCc1ccccc1	inconclusive: 35.5 µM [inhibitor, single point]	
COc1ccc([C@H]2CC(=O)C=C(c3ccc(Cl)c(C(F)(F)F)c3)C2)cc1OC	inconclusive: 20 µM [inhibitor, single point]	
Cc1cccc(NC(=O)CSCC(=O)N2CCN(Cc3ccc4c(c3)OCO4)CC2)c1	inconclusive: 6.31 µM [inhibitor, single point]	
CN(C)c1ccc(C=c2c3ccccc3n3c2c2ccccc2[n+]3C)cc1	active: 2.51 µM	
COc1cc(CNc2ccc(O)cc2)cc(Br)c1OCc1ccccc1F	inconclusive: 14.1 µM [inhibitor, partial curve, poor fit]	
CC(=O)c1ccc(N2CCN(c3nc4ccccc4c4nc(-c5cccc(C)c5)nn34)CC2)cc1		inactive: 0%
CCN1CCN(c2ccc(S(=O)(=O)N3CCCCC3)cc2NC(=O)/C=C/c2cccc(OC)c2OC)CC1	inconclusive: 35.5 µM [inhibitor, single point]	
Cc1ccc2nc(-c3ccc(NC(=S)NC4CC(C)(C)NC(C)(C)C4)cc3)sc2c1	inconclusive: 22.4 µM [inhibitor, partial curve, poor fit]	
Cc1cc(C(=O)COC(=O)Cc2n[nH]c(=O)c3ccccc23)c(C)n1-c1ccc2c(c1)OCCO2	inconclusive: 35.5 µM [inhibitor, single point]	
CCOc1ccc(NC(=O)Cn2c(=O)n(Cc3ccco3)c(=O)c3ccc(C(=O)NC4CCCC4)cc32)cc1		inactive: 13.7%
COc1ccc(NC(=S)NN2CCN(C)CC2)cc1		inactive: 0%
Cc1ccccc1Cn1nc(C)c(NC(=O)c2cc(CC(C)C)on2)c1C	inconclusive: 35.5 µM [inhibitor, single point]	
COc1ccccc1CNC(=O)C1CCN(S(=O)(=O)c2ccc3[nH]c(=O)ccc3c2)CC1		inactive: 3.31%
Cc1cc(C(=O)C(=O)N(C)C)c(C)n1-c1ccc(Cl)c(Cl)c1	inconclusive: 15.8 µM [inhibitor, single point]	
C/C=C/c1ccc(OCC(=O)N2CCc3cc(OC)c(OC)cc3C2)c(OC)c1		inactive: -20.3%
CC(C)Nc1nc2nonc2nc1Nc1ccccc1	inconclusive: 35.5 µM [inhibitor, single point]	
COc1ccc(OC)c(NC(=O)CN(c2ccc(OC)c(Cl)c2)S(C)(=O)=O)c1		inactive: -1.59%
Fc1ccc2c(c1)C(c1ccncc1)=NNC(c1ccc(Br)cc1)=N2	inconclusive: 0.631 µM [inhibitor, partial curve, poor fit]	
Cc1cccc(NC(=S)NC2CCCC2)c1		inactive: -15.6%
CCOC(=O)C(CSCC(=O)c1ccc(Cl)cc1)NC(=O)OC(C)(C)C (stereo not given)	inconclusive: 35.5 µM [inhibitor, single point]	

SMILES	Potency	activity, negative = inhibition
Cc1ccc(NC(=O)CN2C(=O)c3ccccc3S2(=O)=O)c(C)c1		inactive: 3.78%
COc1cc(C(CCN2CCOCC2)c2c(OC)cc(OC)c3c(-c4ccccc4)cc(=O)oc23)cc(OC)c1OC (stereo not given)	inconclusive: 15.8 µM [inhibitor, single point]	
CCCCCCc1nc2nc(Cl)c(Cl)nc2[nH]1		inactive: 4.24%
COc1ccccc1CNC(=O)CSCc1nc(-c2ccc(OC)c(OC)c2)oc1C	inconclusive: 7.08 µM [inhibitor, partial curve]	
COc1ccc(NC(=O)C(=O)NCC2CCCN2S(=O)(=O)c2cccs2)cc1 (stereo not given)	inconclusive: 8.91 µM [inhibitor, single point]	
CCCCNC(=O)c1sc(=S)n2c1[nH]c(=O)c1ccccc12	inconclusive: 28.2 µM [inhibitor, single point]	
Cc1cc(Cl)ccc1OCC(=O)N1CCC(c2nc3ccccc3o2)CC1	inconclusive: 7.08 µM [inhibitor, partial curve, poor fit]	
CCOc1ccccc1N(C)C(=O)c1cc2c(=O)n(CC)c3ccccc3c2s1	inconclusive: 22.4 µM [inhibitor, single point]	
CCN(C[C@H]1N[C@@](Cc2ccccc2)(C(=O)OC)[C@H]2C(=O)N(Cc3ccccc3)C(=O)[C@@H]12)C(=O)c1ccc(F)cc1	inconclusive: 0.501 µM [inhibitor, full curve, poor fit]	
C#CCCOC(=O)N1C2=NC(C(=O)OC)=C(C(=O)OC)[C@@H]3N(Cc4ccccc4)c4ccccc4[C@]23C[C@H]1C(=O)OC	inconclusive: 11.2 µM [inhibitor, partial curve, poor fit]	
CCOC(=O)C1=C(CSc2nc3ccccc3s2)NC(=O)NC1c1cc(C)ccc1C (stereo not given)	active: 11.2 µM	
O=S(=O)(c1ccc(F)cc1)N(Cc1nc(-c2ccccc2)no1)C1CCCCC1		inactive: -30%
O=C(Nc1nnc(-c2ccc3c(c2)CCCC3)o1)c1ccccc1	inconclusive: 31.6 µM [inhibitor, single point]	
COc1ccc(SCCN2CCN(C)CCC2=O)cc1	inconclusive: 6.31 µM [inhibitor, single point]	
Cc1cc(Cl)ccc1C(O)c1ncc(-c2ccc3ccccc3c2)[nH]1 (stereo not given)	inconclusive: 35.5 µM [inhibitor, single point]	
C#CCOCCOCCOCCNc1nc(N2CCN(C(=O)CCCCCCCCCCNC(=O)[C@H]([C@@H](C)CC)n3cc(CCCCCN)nn3)CC2)nc(N2CCN(C(=O)CCCCCCCCCCNC(=O)[C@H](CO)n3cc(CCCCCN)nn3)CC2)n1	inconclusive: 25.1 µM [inhibitor, partial curve, poor fit]	
CCOC(=O)N1CCN(S(=O)(=O)c2ccc(C(=O)N(CCN(CC)CC)c3nc4c(C)cccc4s3)cc2)CC1		inactive: 0%
CCc1cc(-c2[nH]ncc2-c2ccc3c(c2)OCO3)c(O)cc1O	inconclusive: 14.1 µM [inhibitor, single point]	
O=C(Nc1ccnn1C1CCN(C(=O)CCc2ccc(F)cc2)CC1)C1CCOC1 (stereo not given)	inconclusive: 0.398 µM [inhibitor, full curve, poor fit]	
Cc1ccc(C(=O)NCCSCc2ccc(Cl)cc2Cl)cc1[N+](=O)[O-]	inconclusive: 35.5 µM [inhibitor, single point]	

Source: PubChem BioAssay AID588855 (National Center for Advancing Translational Sciences (NCATS), 2011)
